PubChem BioAssay AID2100 (National Center for Advancing Translational Sciences (NCATS), 2009)
Among all 300,000 compounds or so, about 1,200 (0.4%) were called active. The shares of active, inactive and inconclusive entries below differ from those in the screen. Calls follow the shape of the dose curve; as a rule, active = well fitted inhibition curve with a large enough effect; inconclusive = small, poorly fitted or top-dose-only effect, or another doubt; inactive = no such curve, though single readings can be large or run the other way. Potencies of inconclusive entries are doubtful fits and often do not repeat.

molecular target: Lysosomal alpha-glucosidase (Homo sapiens) (UniProt P10253); test: qHTS Assay for Inhibitors and Activators of Human alpha-Glucosidase Cleavage of Glycogen; details: recombinant GAA, glycogen substrate, Amplex Red glucose oxidase fluorescence; activity change, negative = inhibition: at 76.4 µM (top of the series) unless noted;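 as to activity change, negative = inhibition: 0% = full enzyme reaction and -100% = no-enzyme basal signal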
Procedure, shortened: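 qHTS, 1536-well; enzyme 4 nM final; cpd up to 77 uM; substrate bovine liver glycogen 30 ug; 50 mM citrate/phosphate pH 5.0, 0.01% Tween-20; 37 C, 40 min; Amplex Red detection 45 min RT; Hill fit → AC50.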
Potency is read from the fitted curve at half-maximal effect.

Compound | Potency | activity change, negative = inhibition
COc1ccc(N2C(=O)CC(NNC(=O)c3cccnc3)C2=O)cc1 (centres undefined) | inconclusive: 28.2 µM [inhibitor, partial curve] | 
CC(OC(=O)c1ccc2c(=O)n3c(nc2c1)CCCCC3)C(N)=O (centres undefined) |  | inconclusive: 31.8% [activator]
COc1cc(CNc2ccc3[nH]c(=O)[nH]c3c2)ccc1OCc1ccccc1Cl | inconclusive: 11.2 µM [inhibitor, partial curve] | 
O=C(NNC(=S)Nc1ccc(Br)cc1)c1ccccc1Br | inconclusive: 50.1 µM [inhibitor, single point] | 
O=C1C=C(Nc2ccccc2O)c2ccccc2C1=O | active: 12.5 µM | 
CCc1nnc(NC(=O)C2CCCCN2S(=O)(=O)c2ccccc2)s1 (centres undefined) |  | inconclusive: 33.1% [activator]
COc1ccc(-c2oc3c(OC)c(OC)c(OC)c(O)c3c(=O)c2OC)cc1OC | inconclusive: 39.8 µM [inhibitor, single point] | 
Cc1ccc(C(=O)NNc2cc(=O)n(C)c(=O)n2C)cc1C | inconclusive: 17.8 µM [inhibitor, partial curve] | 
Cc1onc(C(=O)NN)c1C(=O)Nc1ncc(C(F)(F)F)cc1Cl | inconclusive: 44.7 µM [inhibitor, single point] | 
Cn1c(SCc2ccccc2)nnc1-c1ccco1 | inactive | 
CC(=O)N1CCN(c2ccc(NCc3ccc(F)cc3)cc2)CC1 | inconclusive: 17.6 µM [inhibitor, partial curve] | 
COc1ccc(Cc2n[nH]c(=S)n2N)cc1OC | inconclusive: 50.1 µM [inhibitor, single point] | 
C=CCc1cccc(C2Nc3ccccc3C(=O)N2O)c1O (centres undefined) | inconclusive: 28.2 µM [inhibitor, partial curve] | 
O=C(Cn1c(SCc2cccc(F)c2)nc2cccnc21)Nc1ccc(F)c(Cl)c1 | inconclusive: 11.2 µM [inhibitor, single point] | 
COC(=O)CN1C(=S)N(c2ccc(Cl)cc2)C(=O)C1CC(=O)Nc1ccc(Cl)cc1 (centres undefined) | inconclusive: 31.6 µM [inhibitor, single point] | 
Cc1ccc(/C=N/c2sc3c(c2C#N)CCCCC3)o1 | inconclusive: 31.4 µM [inhibitor, single point] | 
CCCCn1c(-c2csc3c2CCC(C)C3)n[nH]c1=S (centres undefined) | inconclusive: 35.2 µM [inhibitor, single point] | 
Cc1ccc(S(=O)(=O)/N=C2/C=C(C3C(=O)CC(C)(C)CC3=O)C(=O)c3ccccc32)cc1 | inconclusive: 35.5 µM [inhibitor, single point] | 
CC(C)C(=O)Nc1ccc(Cc2ccc(NC(=O)C(C)C)c(O)c2)cc1O | inconclusive: 17.8 µM [inhibitor, partial curve] | 
N#Cc1c(N)n(CCNC(=O)c2ccccc2)c2nc3ccccc3nc12 | inactive | 
O=C(Nc1ccc(F)cc1)c1oc2ccccc2c1NC(=O)C12CC3CC(CC(C3)C1)C2 | inactive | 
O=C(O)CC(NC(=S)NCc1ccccc1)C(=O)O (centres undefined) | inconclusive: 22.4 µM [inhibitor, single point] | 
CC(=O)Nc1cc(OC(C)=O)c2nonc2c1OC(C)=O | active: 15.7 µM | 

Compound | Potency | activity change, negative = inhibition
CCOc1ccc(N(C(=O)CNS(=O)(=O)c2ccccc2)C(CC)C(=O)NCc2ccco2)cc1 (centres undefined) | inconclusive: 4.47 µM [inhibitor, full curve] | 
C/C(=N\NC(=S)NC(C)C)c1ccc2c(c1)OCCO2 | inconclusive: 50.1 µM [inhibitor, single point] | 
CCOc1ccc(Nc2oc(-c3ccc(Cl)cc3)nc2C#N)cc1 | inconclusive: 28.2 µM [inhibitor, single point] | 
Cc1ccc(N2CCN(c3ccc(NCc4nc5ccccc5n4C)cc3)CC2)cc1 | inconclusive: 14.1 µM [inhibitor, partial curve] | 
COC(=O)c1[nH]c2ccc(C)cc2c1NS(=O)(=O)c1ccc(F)cc1 | active: 10 µM | 
Cc1cc2oc(=O)sc2cc1NS(=O)(=O)c1ccccc1 | inconclusive: 50.1 µM [inhibitor, single point] | 
COc1ccc(-c2nc3cc(C)ccn3c2NCc2ccc3c(c2)OCO3)cc1 | inconclusive: 22.2 µM [inhibitor, single point] | 
CCOC(=O)c1c(C)n(-c2ccc(C)cc2)c2c(C(C(C)=O)C(=O)O)c(Br)c(O)c(O)c12 (centres undefined) | inconclusive: 28 µM [inhibitor, single point] | 
COc1ccc2[nH]c(C(=O)O)c(NS(=O)(=O)c3ccc(Cl)s3)c2c1 | active: 9.92 µM | 
COC(=O)CNc1c(-c2ccccc2)nc2ccc(Br)cn12 | inconclusive: 39.5 µM [inhibitor, single point] | 
Oc1nc(Nc2ccc(F)cc2)sc1/C=C1\C=Nc2ccccc21 | inactive | 
Cc1ccc2nc(-c3ccncc3)c(NC3CCCCC3)n2c1 | inconclusive: 7.94 µM [inhibitor, full curve] | 
O=C(N/N=C/c1c(O)n(-c2ccccc2Cl)c(=O)c2ccccc12)c1cccnc1 | inconclusive: 19.8 µM [inhibitor, partial curve] | 
Cc1cc(C)c[n+](-c2[nH]c(=O)sc2/C=N/NC([S-])=Nc2ccccc2)c1 | inconclusive: 7.08 µM [inhibitor, full curve] | 
Clc1ccc(-c2nc3cnccn3c2Nc2ccc3c(c2)OCO3)cc1 | inconclusive: 22.2 µM [inhibitor, single point] | 
N#Cc1c(/N=C/c2ccc(Br)s2)sc2c1CCC2 | inactive | 
Cc1cc(C)cc(OCC(=O)Nc2nc3c(s2)CC(C(C)(C)C)CC3)c1 (centres undefined) | inactive | 
CCn1c2ccccc2c2cc(NC(=O)c3cccc([N+](=O)[O-])c3)ccc21 |  | inconclusive: 35.5% [activator]
CC(=O)N1CCN(Cc2nc3cc(NC(=O)c4ccc(F)cc4)ccc3n2C)CC1 | inactive | 
Cn1cccc1/C=N/NC(=O)c1ccccn1 | inconclusive: 50.1 µM [inhibitor, single point] | 
CCC(=O)NNc1nc2c(C)cccc2s1 | inconclusive: 8.91 µM [inhibitor, partial curve] | 
CCNc1nc(NC(C)C)nc(Nn2cnnc2)n1 | inconclusive: 28 µM [inhibitor, single point] | 
COc1ccc(C(=O)CSC2=C(C#N)C3(CCCCC3)C(C#N)=C(N)N2)cc1 | inconclusive: 12.6 µM [inhibitor, full curve, poor fit] | 

Compound | Potency | activity change, negative = inhibition
COC(=O)C1C(C(C)C)N(c2ccccc2)OC1(C)O (centres undefined) | inconclusive: 12.5 µM [inhibitor, partial curve] | 
FC(F)(F)c1cccc(NC(=S)NCc2ccccn2)c1 | inactive | 
O=C(Cn1c(-c2ccccc2)c[n+]2ccsc12)c1ccc([N+](=O)[O-])cc1 | inconclusive: 25.1 µM [inhibitor, single point] | 
[O-][n+]1onc2c1CCC1N(O)C(c3ccccc3)CC21O (centres undefined) | active: 28 µM | 
CCOc1ccc(NC(=O)CC2C(=O)N(c3ccc(F)cc3)C(=O)N2Cc2ccc(OC)c(OC)c2)cc1 (centres undefined) | inactive | 
Cc1ccc(Sc2c(C)nn(-c3ccccc3)c2OC(=O)C(C)(C)C)cc1 | inconclusive: 28.2 µM [inhibitor, single point] | 
COc1ccc(CCNc2oc(/C=C/c3cc(OC)c(OC)c(OC)c3)nc2C#N)cc1OC | inconclusive: 6.31 µM [inhibitor, full curve, poor fit] | 
Cc1cc(C(=O)Nc2ccc(Nc3ccccc3)cc2)ccc1[N+](=O)[O-] | inconclusive: 28.2 µM [inhibitor, partial curve] | 
Cc1nc(N)sc1N=Nc1c(C)n(C)n(-c2ccccc2)c1=O | inconclusive: 6.31 µM [inhibitor, full curve] | 
CC(/C=N/NC(=O)c1cc(-c2ccncc2)nc2ccccc12)=C\c1ccco1 | inactive | 
CCN(c1ccccc1)S(=O)(=O)c1ccc(NC(=O)c2nc(SC)ncc2Cl)cc1 | inactive | 
Cc1ccc(/C(COc2ccccc2O)=N\O)cc1 | inconclusive: 22.2 µM [inhibitor, partial curve] | 
CC1=C(c2ccc(Cl)cc2)S(=O)(=O)NC1=NCCCN1CCN(c2cc(C)ccc2C)CC1 | inactive | 
Cc1ccc(O)c(Nc2nc(-c3ccccc3)nc3ccccc23)c1 | inactive | 
Cc1ccc2[nH]c(=O)c(-c3nc4cc(C)ccn4c3NCc3ccco3)cc2c1 | active: 9.92 µM | 
CCOC(=O)CN1NC2(CCC(C(C)(C)C)CC2)NC1=S (centres undefined) | inconclusive: 15.7 µM [inhibitor, partial curve] | 
CCN(CC)c1ccc(NS(=O)(=O)c2ccc3c(c2)oc(=O)n3C)c(C)c1 | inconclusive: 14 µM [inhibitor, partial curve] | 
Cc1c(Cl)cccc1NC(=O)CC1Oc2ccccc2NC1=O (centres undefined) | inactive | 
Cc1oc(-c2ccc(Cl)cc2)nc1CS(=O)CC(=O)NCCN1CCCC1 (centres undefined) | inconclusive: 100 µM [inhibitor, partial curve, poor fit] | 
CC(=O)Nc1ccc(NC(=O)CCc2nc3cccnc3n2Cc2cccs2)cc1 | inactive | 
CCOC(=O)c1cc(CC)sc1N1C(=O)CC(Sc2ccccc2C(=O)O)C1=O (centres undefined) | inconclusive: 31.6 µM [inhibitor, single point] | 
COc1ccc(CNC(=O)c2nc(SCc3ccccc3F)ncc2Cl)cc1 | inconclusive: 11.2 µM [inhibitor, single point] | 
CC1(C)C(N(O)C(=O)Nc2ccccc2)N(c2cccc(Cl)c2)C(=O)N1O (centres undefined) | inconclusive: 3.14 µM [inhibitor, full curve] | 
